# Assay results as given in the supplement of paper PMC8728848.
# The list shows a part of the results.
# B1: Cp ZmpB (Clostridium perfringens), Q0TR08 (protein)
# chain: MNKRKIAAIILATMITNLSATTIDVLAQELNTKNNSKVEVSHDDESHQARVSKFDLYNSDKLDAYNQEFQVSRSNIKSINNNGGKYNSSTIDKAIDGNLETHWETGKPNDANFTNEVVVTFNEITNIDRIVYSARRDSARGKGFAKEFEIYASLKDEGDDFNLVSSGEYTESTRDLVEIKFNPTDFKRLKFKFKKADQNWASAAEFMFYKEDKLNEKFNGLFTDSSMNKVSEEFNTLEKLNAFENELKDHPIYDLYKEGLNNARAILTETSENPTKATLGQITYNLNDDYNNQYRMPYKNIKAIKNNGRHYAAQNIEKAIDNDVNTYWETGTLNSSSFNNEVEVEFNDLVTLDRIVYGSRQSDLKGFAEEVYIYASRTSKGDTYKLVATGAHEATKGLVEAKFEPTEFKRVKFKFKKSKQNSATLNELMFYKPDEVYSSIPKLFTDGTMSELSEEFNSLEKINAFKEKAKNHPLYNDFNETIELAESLISNPRKEDVLELEMRGDSISEAKKRKVWNFQDWQITGLSARAGDKITVYVDVAEGDPTPTLLYKQSLTQHGGATSFQLKPGKNEITIPEINYESNGIPKDVIQGGDLFFTNYKSDSQKRAPKVRIEGASKYPVFILGKSDENEVMKELEAYVEKIKAEPKTTPNIFAVSSNKSLEFVQATYALDWYKKNNKTPKYTAEQWDQYIADAMGFWGFDNSKDVNSDFNFRIMPMVKNLSGGAFMNAGNGVIGIRPGNQDAILAANKGWGVAHELGHNFDTGGRTIVEVTNNMMPLFFESKYKTKTRITDQNIWENNTYPKVGLDDYSNNELYNKADSTHLAQLAPLWQLYLYDNTFYGKFERQFRERDFGNKNREDIYKSWVVAASDAMELDLTEFFARHGIRVDDKVKEDLAKYPKPDKKIYYLNDLAMNYKGDGFTENAKVSVSTSGSNGNIKLSFSVDDENKDNILGYEIRRDGKYVGFTSNDSFVDTKSNLDEDGVYVVTPYDRKLNTLNPIEVNALQPTLSVNPVITLALGEEFNEEEYIVAKDIKGNSLSESVKVKSSNVNTSKVGEYEVLYSLEDSKGNEYTKTSKVNVVSRKEYMSDLTPKQSSNGWGTVRKDKSISGGVIGLTRDGDFVDYNKGLGLHSNAEYVYDLEGKDYDYFESYVGVDKAMSSRPASSVIFKVLVDGEEKFNSGVMRSTTPQKYVKVDVKNAKELKLIVNDAGDGDSSDHASFGDAKLATLSSKPIIKGENLAYSMDEKVDLMKGITATDIEDGNITSKVQIKSSDFVEGKSGIFTVVYSVTDSDGLTSECSRTIAVTDKETQLSDLNWKSATIGSGSVRKDRAVSGNQIRLLNEDNSVETFAKGIGTHSYSEIVYNSEGYDIFDTWVGIDRHVADKKVSSVKFKVYVDGELKAETDVMRIDTPKKRLVVDVRNSKEIKLVVDVADNGNNWDHADWADAKFRNLAEYDASELNKAIEEAKKLDLNNYTEESSEALKNAISKGEEALLSKDKETINSALEELNKEMNSLVKVDLNAVINIPDKYLLKSIQNQLNKTGDITLGDMYSLTTLTLSGVEDLTGLENAKNLETLNMDYNEVKDLRPLSKLKKLNTLNAQEQFIAAGELKPSNGKVIGDSKVYNREGKNVAKTIRVVDKNGNTILEQDAKDEFTINTKDLSSGLYGVHVLFEDEGFSGVMFYLFNV
# How the values were obtained:
# Experiment in all cases: glycan array binding signal (z-score within array); higher = stronger binding
# Settings in all cases: glycan notation: IUPAC condensed, linker removed
# [1] = target: Gal(b1-3)GlcNAc(b1-6)GalNAc
# In short: (§1)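 Glycan array data were curated from 3228 arrays in the Consortium for Functional Glycomics database and kept only where the protein sequence was available. Glycan names were converted to IUPAC-condensed notation, and columns mapping to the same glycan were averaged. The binding signal is a within-array Z-score, averaged across arrays of the same protein sequence at different concentrations or buffers and across linkers. Negative Z-scores can be read as non-binding.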
# [2] = target: Gal(b1-3)GlcNAc(b1-6)[Gal(b1-3)]GalNAc
# In short: as §1
# [3] = target: Gal(b1-3)GlcNAc6S
# In short: as §1
# [4] = target: Gal(b1-3)[Fuc(a1-4)]GlcNAc
# In short: as §1
# [5] = target: Gal(b1-3)[Fuc(a1-4)]GlcNAc(b1-2)Man
# In short: as §1
# [6] = target: Gal(b1-3)[Fuc(a1-4)]GlcNAc(b1-2)Man(a1-3)[Gal(b1-3)[Fuc(a1-4)]GlcNAc(b1-2)Man(a1-6)]Man(b1-4)GlcNAc(b1-4)[Fuc(a1-6)]GlcNAc
# In short: as §1
# [7] = target: Gal(b1-3)[Fuc(a1-4)]GlcNAc(b1-3)Gal(b1-3)[Fuc(a1-4)]GlcNAc
# In short: as §1
# [8] = target: Gal(b1-3)[Fuc(a1-4)]GlcNAc(b1-3)Gal(b1-4)[Fuc(a1-3)]GlcNAc
# In short: as §1
# [9] = target: Gal(b1-3)[Fuc(a1-4)]GlcNAc(b1-6)GalNAc
# In short: as §1
# [10] = target: Gal(b1-3)[GlcNAc(b1-6)]GalNAc
# In short: as §1
# [11] = target: Gal(b1-3)[Neu5Ac(a2-6)]GalNAc
# In short: as §1
# [12] = target: Gal(b1-3)[Neu5Ac(a2-6)]GlcNAc(b1-4)Gal(b1-4)Glc
# In short: as §1
# [13] = target: Gal(b1-3)[Neu5Ac(b2-6)]GalNAc
# In short: as §1
# [14] = target: Gal(b1-4)Gal
# In short: as §1
# [15] = target: Gal(b1-4)GalNAc(a1-3)[Fuc(a1-2)]Gal(b1-4)GlcNAc
# In short: as §1
# [16] = target: Gal(b1-4)GalNAc(b1-3)[Fuc(a1-2)]Gal(b1-4)GlcNAc
# In short: as §1
# [17] = target: Gal(b1-4)Glc
# In short: as §1
# [18] = target: Gal(b1-4)Glc6S
# In short: as §1
# [19] = target: Gal(b1-4)GlcNAc
# In short: as §1
# [20] = target: Gal(b1-4)GlcNAc(a1-6)Gal(b1-4)GlcNAc
# In short: as §1
# [21] = target: Gal(b1-4)GlcNAc(b1-2)Man
# In short: as §1
# [22] = target: Gal(b1-4)GlcNAc(b1-2)Man(a1-3)Man(b1-4)GlcNAc(b1-4)GlcNAc
# In short: as §1
# [23] = target: Gal(b1-4)GlcNAc(b1-2)Man(a1-3)[Gal(b1-4)GlcNAc(b1-2)Man(a1-6)]Man(b1-4)GlcNAc(b1-4)GlcNAc
# In short: as §1
# [24] = target: Gal(b1-4)GlcNAc(b1-2)Man(a1-3)[Gal(b1-4)GlcNAc(b1-2)Man(a1-6)]Man(b1-4)GlcNAc(b1-4)[Fuc(a1-6)]GlcNAc
# In short: as §1
# [25] = target: Gal(b1-4)GlcNAc(b1-2)Man(a1-3)[Gal(b1-4)GlcNAc(b1-2)Man(a1-6)][Gal(b1-4)GlcNAc(b1-4)]Man(b1-4)GlcNAc(b1-4)[Fuc(a1-6)]GlcNAc
# In short: as §1
# [26] = target: Gal(b1-4)GlcNAc(b1-2)Man(a1-3)[Gal(b1-4)GlcNAc(b1-2)Man(a1-6)][GlcNAc(b1-4)]Man(b1-4)GlcNAc(b1-4)[Fuc(a1-6)]GlcNAc
# In short: as §1
# [27] = target: Gal(b1-4)GlcNAc(b1-2)Man(a1-3)[GlcNAc(b1-2)Man(a1-6)]Man(b1-4)GlcNAc(b1-4)GlcNAc
# In short: as §1
# [28] = target: Gal(b1-4)GlcNAc(b1-2)Man(a1-3)[GlcNAc(b1-4)][Gal(b1-4)GlcNAc(b1-2)Man(a1-6)]Man(b1-4)GlcNAc(b1-4)GlcNAc
# In short: as §1
# [29] = target: Gal(b1-4)GlcNAc(b1-2)Man(a1-3)[Man(a1-6)]Man(b1-4)GlcNAc(b1-4)GlcNAc
# In short: as §1
# [30] = target: Gal(b1-4)GlcNAc(b1-2)Man(a1-6)Man(b1-4)GlcNAc(b1-4)GlcNAc
# In short: as §1
# [31] = target: Gal(b1-4)GlcNAc(b1-2)Man(a1-6)[GlcNAc(b1-2)Man(a1-3)]Man(b1-4)GlcNAc(b1-4)GlcNAc
# In short: as §1
# [32] = target: Gal(b1-4)GlcNAc(b1-2)Man(a1-6)[Man(a1-3)]Man(b1-4)GlcNAc(b1-4)GlcNAc
# In short: as §1
# [33] = target: Gal(b1-4)GlcNAc(b1-2)[Gal(b1-4)GlcNAc(b1-4)]Man(a1-3)[Gal(b1-4)GlcNAc(b1-2)Man(a1-6)]Man(b1-4)GlcNAc(b1-4)GlcNAc
# In short: as §1
# [34] = target: Gal(b1-4)GlcNAc(b1-2)[Gal(b1-4)GlcNAc(b1-4)]Man(a1-3)[Gal(b1-4)GlcNAc(b1-2)[Gal(b1-4)GlcNAc(b1-6)]Man(a1-6)]Man(b1-4)GlcNAc(b1-4)GlcNAc
# In short: as §1
# [35] = target: Gal(b1-4)GlcNAc(b1-2)[Gal(b1-4)GlcNAc(b1-4)]Man(a1-3)[GlcNAc(b1-4)][Gal(b1-4)GlcNAc(b1-2)Man(a1-6)]Man(b1-4)GlcNAc(b1-4)GlcNAc
# In short: as §1
# [36] = target: Gal(b1-4)GlcNAc(b1-2)[Gal(b1-4)GlcNAc(b1-4)]Man(a1-3)[GlcNAc(b1-4)][Gal(b1-4)GlcNAc(b1-2)[Gal(b1-4)GlcNAc(b1-6)]Man(a1-6)]Man(b1-4)GlcNAc(b1-4)GlcNAc
# In short: as §1
# [37] = target: Gal(b1-4)GlcNAc(b1-2)[Gal(b1-4)GlcNAc(b1-6)]Man(a1-6)[Gal(b1-4)GlcNAc(b1-2)Man(a1-3)]Man(b1-4)GlcNAc(b1-4)GlcNAc
# In short: as §1
# [38] = target: Gal(b1-4)GlcNAc(b1-2)[Gal(b1-4)GlcNAc(b1-6)]Man(a1-6)[Gal(b1-4)GlcNAc(b1-2)Man(a1-3)]Man(b1-4)GlcNAc(b1-4)[Fuc(a1-6)]GlcNAc
# In short: as §1
# [39] = target: Gal(b1-4)GlcNAc(b1-2)[Gal(b1-4)GlcNAc(b1-6)]Man(a1-6)[GlcNAc(b1-4)][Gal(b1-4)GlcNAc(b1-2)Man(a1-3)]Man(b1-4)GlcNAc(b1-4)GlcNAc
# In short: as §1
# [40] = target: Gal(b1-4)GlcNAc(b1-2)[Gal(b1-4)GlcNAc(b1-6)]Man(a1-6)[GlcNAc(b1-4)][Gal(b1-4)GlcNAc(b1-2)[Gal(b1-4)GlcNAc(b1-4)]Man(a1-3)]Man(b1-4)GlcNAc(b1-4)[Fuc(a1-6)]GlcNAc
# In short: as §1
# [41] = target: Gal(b1-4)GlcNAc(b1-3)Gal(b1-3)GalNAc
# In short: as §1
# [42] = target: Gal(b1-4)GlcNAc(b1-3)Gal(b1-3)GlcNAc
# In short: as §1
# [43] = target: Gal(b1-4)GlcNAc(b1-3)Gal(b1-4)Glc
# In short: as §1
# [44] = target: Gal(b1-4)GlcNAc(b1-3)Gal(b1-4)GlcNAc
# In short: as §1
# [45] = target: Gal(b1-4)GlcNAc(b1-3)Gal(b1-4)GlcNAc(b1-2)Man(a1-3)[Gal(b1-4)GlcNAc(b1-3)Gal(b1-4)GlcNAc(b1-2)Man(a1-6)]Man(b1-4)GlcNAc(b1-4)GlcNAc
# In short: as §1
binder,measurement,setting,value
B1,glycan array binding signal (z-score),[1],-0.228
same,glycan array binding signal (z-score),[2],0.823
same,glycan array binding signal (z-score),[3],-0.065
same,glycan array binding signal (z-score),[4],-0.339
same,glycan array binding signal (z-score),[5],0.248
same,glycan array binding signal (z-score),[6],0.786
same,glycan array binding signal (z-score),[7],-0.285
same,glycan array binding signal (z-score),[8],-0.183
same,glycan array binding signal (z-score),[9],0.124
same,glycan array binding signal (z-score),[10],-0.284
same,glycan array binding signal (z-score),[11],-0.329
same,glycan array binding signal (z-score),[12],-0.24
same,glycan array binding signal (z-score),[13],0.169
same,glycan array binding signal (z-score),[14],-0.237
same,glycan array binding signal (z-score),[15],0.022
same,glycan array binding signal (z-score),[16],0.022
same,glycan array binding signal (z-score),[17],-0.296
same,glycan array binding signal (z-score),[18],0.099
same,glycan array binding signal (z-score),[19],-0.328
same,glycan array binding signal (z-score),[20],-0.191
same,glycan array binding signal (z-score),[21],0.161
same,glycan array binding signal (z-score),[22],0.279
same,glycan array binding signal (z-score),[23],0.038
same,glycan array binding signal (z-score),[24],-0.045
same,glycan array binding signal (z-score),[25],-0.446
same,glycan array binding signal (z-score),[26],-0.407
same,glycan array binding signal (z-score),[27],-0.22
same,glycan array binding signal (z-score),[28],0.434
same,glycan array binding signal (z-score),[29],-0.033
same,glycan array binding signal (z-score),[30],0.106
same,glycan array binding signal (z-score),[31],-0.315
same,glycan array binding signal (z-score),[32],0.035
same,glycan array binding signal (z-score),[33],-0.164
same,glycan array binding signal (z-score),[34],-0.21
same,glycan array binding signal (z-score),[35],0.051
same,glycan array binding signal (z-score),[36],-0.025
same,glycan array binding signal (z-score),[37],-0.34
same,glycan array binding signal (z-score),[38],0.112
same,glycan array binding signal (z-score),[39],-0.114
same,glycan array binding signal (z-score),[40],-0.088
same,glycan array binding signal (z-score),[41],-0.341
same,glycan array binding signal (z-score),[42],1.39
same,glycan array binding signal (z-score),[43],-0.317
same,glycan array binding signal (z-score),[44],0.094
same,glycan array binding signal (z-score),[45],-0.213
